Assay results: PubChem BioAssay AID504332 (National Center for Advancing Translational Sciences (NCATS), 2011)
Screen size: about 350,000 compounds; about 31,000 (8.9%) were called active. Inconclusive means that the source gave no clear call. Such entries were picked first, then a sample of the others. The call rests on the fitted dose curve; in most records, active means well fitted inhibition curve with a large enough effect; inconclusive means small, poorly fitted or top-dose-only effect; inactive means no such curve, though single readings can be large or run the other way. Potencies beside an inconclusive call are fits to weak or partial responses and may not hold up.

biological target: Histone-lysine N-methyltransferase EHMT2 (Homo sapiens) (UniProt Q96KQ7); test: qHTS Assay for Inhibitors of Histone Lysine Methyltransferase G9a; details: G9a H3K9 monomethylation, AlphaScreen, 2 h; activity, negative = inhibition: at 59 µM (top of the series) unless noted; further: nearly all actives have a fitted effect of over 75% in size
Chain of UniProt Q96KQ7 (Q96KQ7 whole entry, looked up): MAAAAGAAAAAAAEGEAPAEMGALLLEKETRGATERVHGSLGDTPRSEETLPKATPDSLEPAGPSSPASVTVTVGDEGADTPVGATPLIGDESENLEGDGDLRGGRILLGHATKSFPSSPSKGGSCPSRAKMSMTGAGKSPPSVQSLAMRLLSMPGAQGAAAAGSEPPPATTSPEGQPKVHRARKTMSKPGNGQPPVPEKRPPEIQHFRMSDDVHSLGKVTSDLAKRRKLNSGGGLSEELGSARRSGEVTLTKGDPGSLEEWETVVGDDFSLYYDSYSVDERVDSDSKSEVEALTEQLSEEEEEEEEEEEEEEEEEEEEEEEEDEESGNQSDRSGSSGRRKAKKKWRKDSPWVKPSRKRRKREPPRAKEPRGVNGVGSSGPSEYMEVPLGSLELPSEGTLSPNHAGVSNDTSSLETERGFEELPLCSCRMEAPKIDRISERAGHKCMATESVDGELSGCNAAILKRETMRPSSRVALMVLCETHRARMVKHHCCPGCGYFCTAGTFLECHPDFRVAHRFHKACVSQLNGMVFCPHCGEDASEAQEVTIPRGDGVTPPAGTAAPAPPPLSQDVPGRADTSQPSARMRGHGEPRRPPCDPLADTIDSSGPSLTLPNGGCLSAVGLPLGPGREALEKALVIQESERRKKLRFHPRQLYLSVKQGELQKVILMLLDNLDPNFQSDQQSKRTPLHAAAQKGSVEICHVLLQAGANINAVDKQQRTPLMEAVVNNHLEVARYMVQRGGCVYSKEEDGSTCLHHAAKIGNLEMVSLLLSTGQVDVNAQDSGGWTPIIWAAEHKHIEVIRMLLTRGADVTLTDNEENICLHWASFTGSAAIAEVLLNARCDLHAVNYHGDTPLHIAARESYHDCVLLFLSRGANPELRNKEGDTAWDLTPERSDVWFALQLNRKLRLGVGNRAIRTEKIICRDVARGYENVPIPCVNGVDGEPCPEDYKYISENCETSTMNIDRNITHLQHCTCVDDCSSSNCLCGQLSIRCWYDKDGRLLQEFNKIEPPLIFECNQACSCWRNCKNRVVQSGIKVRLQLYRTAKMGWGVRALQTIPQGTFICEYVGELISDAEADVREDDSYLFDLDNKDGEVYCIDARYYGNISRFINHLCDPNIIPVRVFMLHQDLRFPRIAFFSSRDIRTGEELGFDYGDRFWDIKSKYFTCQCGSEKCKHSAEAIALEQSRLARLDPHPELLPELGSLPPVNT
Method in brief: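 Step 1: enzyme (final 20 nM) with compound, 15 min RT. Step 2: substrate peptide 500 nM and SAM 20 uM, 2 h RT. Step 3: anti-H3K9me1 antibody and AlphaScreen beads, 10 min, then plate read.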
On the % scale 0 is the no-effect control and ±100 the full control effect; potency means the concentration at half of the fitted maximal effect; tags describe the fitted curve by direction and shape.

Row | Structure (SMILES) | Potency | activity, negative = inhibition
1 | Cc1cc[n+](-c2[nH]c(=O)sc2/C=N/NC([S-])=Nc2ccccc2)cc1 | active: 28.2 µM | –
2 | CC[C@H](C)/C=C(C)/C=C/C(=O)Cc1cc(O)c(C)c(O)c1C=O | inconclusive: 0.794 µM [inhibitor, partial curve, poor fit] | –
3 | COc1ccc(CCNC(=O)/C(C#N)=C2\N=C(NC(=O)c3ccco3)c3ccccc32)cc1 | – | inactive: -10.4% [at 102 µM]
4 | COc1ccccc1C(=O)NCC(=O)NCC1(N2CCCCC2)CCCCC1 | – | inactive: -6.53% [at 102 µM]
5 | CN(CC(=O)Nc1cccc(F)c1)C(=O)c1ccc(C(=O)c2ccccc2)cc1 | inconclusive: 89.1 µM [inhibitor, partial curve, poor fit] | –
6 | Cc1cc(C)cc(-n2ccnc2SCC(=O)Nc2nc3ccccc3s2)c1 | inconclusive: 10 µM [inhibitor, partial curve, poor fit] | –
7 | CC1Nc2ncnc(N3CCN(c4ccccc4)CC3)c2N(Cc2ccc(Cl)cc2)C1=O (configuration not stated) | – | inconclusive: -55% [inhibitor] [at 2.33 µM]
8 | CCOc1ccc2c(c1)n(CO)c(=S)n2CO | active: 2.24 µM | –
9 | O=C(NNC(=O)c1ccc([N+](=O)[O-])cc1Cl)c1ccncc1 | inconclusive: 39.8 µM [inhibitor, single point] | –
10 | CSc1cccc(NC(=O)c2ccccc2N(C)S(C)(=O)=O)c1 | inconclusive: 89.1 µM [inhibitor, single point] | –
11 | Cn1[nH]c(=O)c(Cl)c(Cl)c1=O | – | inconclusive: -85.2% [inhibitor]
12 | Clc1ccc(Nc2nc(-c3cccs3)cs2)nc1 | – | inconclusive: -68.5% [inhibitor]
13 | CCOC(=O)c1c(S(=O)(=O)NCC(=O)Nc2ccc(C)c(Cl)c2)c(C)n(C)c1C | – | inactive: 7.94%
14 | COc1ccc2nc(NC(=O)C3CCN(S(=O)(=O)c4cccs4)CC3)sc2c1 | – | inactive: 3.02%
15 | Cc1cccc(CN2CCC(CNC(=O)C3CCCN(S(=O)(=O)c4cnc[nH]4)C3)CC2)c1 (configuration not stated) | inconclusive: 50.1 µM [inhibitor, partial curve] | –
16 | Cc1[nH]c2c(C)cccc2c1CCNS(=O)(=O)c1cccc([N+](=O)[O-])c1 | inconclusive: 39.8 µM [inhibitor, single point] | –
17 | Cc1nc(Cl)c(C(=O)NCc2ccccc2)c(C)c1Cl | – | inactive: -9.64% [at 12.7 µM]
18 | CC(=O)c1c(COC(=O)c2ccccc2Cl)nc2ccccc2[n+]1[O-] | inconclusive: 44.7 µM [inhibitor, partial curve] | –
19 | CC(C)Oc1ccc(CNC(=O)c2ccc(NC(=O)N3CCSc4ncccc43)cc2)cc1 | – | inactive: -37.7%
20 | CCCCn1c(N)c(N(CCOC)C(=O)c2cccc(S(=O)(=O)N3CCCCCC3)c2)c(=O)[nH]c1=O | inconclusive: 89.1 µM [inhibitor, single point] | –
21 | COc1ccccc1NC(=O)C(=O)NNC(=O)c1ccco1 | active: 8.91 µM | –
22 | Cc1ccc(CCNC(=O)C2CC(c3ccccc3[N+](=O)[O-])=NO2)cc1 (configuration not stated) | inconclusive: 89.1 µM [inhibitor, single point] | –

Row | Structure (SMILES) | Potency | activity, negative = inhibition
23 | O=c1[nH]c2c(s1)C(c1ccco1)C1C3CCC(C3)C1S2 (configuration not stated) | active: 7.94 µM | –
24 | O=[N+]([O-])c1cccc2ccc(/C=C/c3ccc(F)cc3)nc12 | active: 12.6 µM | –
25 | Cc1ccc(NCc2nnc(SCC(=O)c3ccccc3)n2Cc2ccco2)c(C)c1 | – | inconclusive: -85.3% [inhibitor]
26 | Cc1cccc(-c2noc(CCC(=O)NCC3CCCO3)n2)c1 (configuration not stated) | – | inconclusive: -60.9% [inhibitor]
27 | O=C(NN=C1CCCC1)C1COc2ccccc2O1 (configuration not stated) | inconclusive: 31.6 µM [inhibitor, partial curve] | –
28 | CN1CCN(c2ccccc2/C=N/NC(=O)c2cccnc2)CC1 | inconclusive: 31.6 µM [inhibitor, partial curve] | –
29 | O=C(O)c1ccc(N2C(=O)C3ON(c4ccccc4)C(c4ccccc4F)C3C2=O)cc1 (configuration not stated) | inconclusive: 22.4 µM [inhibitor, single point] | –
30 | C#CCOCCOCCOCCNc1nc(N2CCN(C(=O)[C@H]([C@@H](C)O)n3cc(CCCCN)nn3)CC2)nc(N2CCN(C(=O)[C@H](C)n3cc(CCCN=C(N)N)nn3)CC2)n1 | inconclusive: 89.1 µM [inhibitor, single point] | –
31 | CCc1noc(C)c1C(=O)Nc1ccc(F)c(F)c1 | inconclusive: 50.1 µM [inhibitor, partial curve] | –
32 | COc1cc(CN2C(=O)C(NC(=O)c3ccco3)(C(F)(F)F)C3=C2CC(C)(C)CC3=O)cc(OC)c1 (configuration not stated) | inconclusive: 28.2 µM [inhibitor, partial curve, poor fit] | –
33 | O=C1Nc2cccnc2Sc2ccccc21 | active: 28.2 µM | –
34 | CN(C)c1ccc(CNC(=O)C2CCN(S(=O)(=O)c3ccc4c(ccn4C)c3)CC2)cc1 | inconclusive: 28.2 µM [inhibitor, single point] | –
35 | COc1cc2c(cc1OC)CN(Cc1ccc(F)cc1)CC2 | inconclusive: 89.1 µM [inhibitor, single point] | –
36 | CCC1(CC)Cc2ccccc2C(N)=C1C#N | inconclusive: 39.8 µM [inhibitor, single point] | –
37 | COc1cccc2[nH]c3c(N4CCCCC4)ncnc3c12 | inconclusive: 0.794 µM [inhibitor, full curve, poor fit] | –
38 | COCCCn1c(SCC(=O)NCc2ccccc2)nc2c(sc3ccccc32)c1=O | – | inactive: 3.7%
39 | N#CCc1c(C#N)c(N)nc(N2CCN(c3ccc(F)cc3)CC2)c1C#N | active: 50.1 µM | –
40 | COc1ccc(C(=O)Nc2nc3c(s2)CCc2cc(OC)ccc2-3)cc1 | active: 6.31 µM | –
41 | COc1ccc(C(=O)NCc2c(C)oc(C)c2C(=O)O)cc1 | inconclusive: 89.1 µM [inhibitor, single point] | –
42 | C#CCOCCOCCOCCNc1nc(N2CCOCC2)nc(N2CCN(C(=O)CCCCCCCCCCNC(=O)[C@H](CO)n3cc(CCCSC)nn3)CC2)n1 | – | inactive: -2.81% [at 2.33 µM]
43 | Cc1ccc(N2C(N)=C(C#N)C(c3cc(CN4CCOCC4)cs3)C3=C2CC(C)(C)CC3=O)cc1 (configuration not stated) | active: 50.1 µM | –
44 | C/C(CCN1CCc2nc(-c3ccccc3)c(-c3ccccc3)cc2C1)=N\O[C@@H](C)c1cc(-c2c(C)cc(C)cc2C)no1 | inconclusive: 70.8 µM [inhibitor, single point] | –

Row | Structure (SMILES) | Potency | activity, negative = inhibition
45 | Cc1n[nH]c(C)c1S(=O)(=O)N1CCCC(C(=O)Nc2ccc(Cl)cc2)C1 (configuration not stated) | – | inactive: 6.54%
46 | COc1ccc(-c2cnnc(N/N=C/c3ccc(-c4ccc([N+](=O)[O-])cc4)o3)n2)cc1 | inconclusive: 8.91 µM [inhibitor, partial curve, poor fit] | –
47 | COc1ccc(NC(=S)Nc2ccc3nccnc3c2)cc1 | inconclusive: 20 µM [inhibitor, single point] | –
48 | O=C1N=c2ccccc2=C1c1sc(Nc2ccc(O)cc2)nc1O | active: 79.4 µM | –
49 | O=C(Nc1ccc2c(c1)ncn2-c1ccccc1)c1ccco1 | active: 11.2 µM | –
50 | CNc1c(N=Cc2cccnc2)c(=O)n(C)c(=O)n1C | inconclusive: 79.4 µM [inhibitor, single point] | –
51 | Cc1c(CN(C)CCc2ccccc2)c(=O)n(-c2ccccc2)n1C | active: 3.98 µM | –
52 | NC1=NC(=Nc2ccc(S(=O)(=O)N3CCOCC3)cc2)c2ccccc21 | – | inactive: -1.28%
53 | Nc1c(C(=O)CSc2nncn2-c2ccccc2)c(=O)[nH]c(=O)n1C1CC1 | inconclusive: 12.6 µM [inhibitor, single point] | –
54 | O=C(c1cc2ccccc2cc1O)N1CCN(c2ccc([N+](=O)[O-])cc2)CC1 | inconclusive: 15.8 µM [inhibitor, partial curve] | –
55 | COc1cc(NC(=O)c2ccc([N+](=O)[O-])cc2)c(OC)cc1NC(=O)CC(C)C | – | inactive: -33.1% [at 102 µM]
56 | CCOc1cc(C2c3c(oc4ccc(F)cc4c3=O)C(=O)N2Cc2ccco2)ccc1O (configuration not stated) | – | inactive: -27.2%
57 | Cc1ccc(NC(=O)C(C)OC(=O)COc2cccc(C(F)(F)F)c2)cc1 (configuration not stated) | inconclusive: 0.141 µM [inhibitor, full curve, poor fit] | –
58 | Cc1ccc(S(=O)(=O)Nc2nc(-c3ccccc3)cs2)cc1 | inconclusive: 89.1 µM [inhibitor, single point] | –
59 | CNC(=O)c1sc(Nc2ccc(OCc3ccccc3)cc2)nc1C | inconclusive: 89.1 µM [inhibitor, single point] | –
60 | COc1ccc(C2C(=O)c3ccccc3C2=O)cc1 | inconclusive: 0.708 µM [inhibitor, full curve, poor fit] | inconclusive: -51.9% [inhibitor] [at 2.33 µM]
61 | COc1ccc(Cn2c(=O)c3cccnc3n(Cc3ccc([N+](=O)[O-])cc3)c2=O)cc1 | inconclusive: 56.2 µM [inhibitor, partial curve, poor fit] | –
62 | COc1ccc(NC(=S)N2CCN(C/C=C/c3ccccc3)CC2)c(OC)c1 | inconclusive: 44.7 µM [inhibitor, partial curve, poor fit] | –
63 | O=C(CCN=C1NS(=O)(=O)c2ccccc21)OCc1nnc(-c2ccccc2)o1 | inconclusive: 89.1 µM [inhibitor, partial curve, poor fit] | –
64 | CC(=O)c1cc2c(cc1NC(=O)CN1CCN(c3cccc(C(F)(F)F)c3)CC1)OCO2 | inconclusive: 31.6 µM [inhibitor, single point] | –
65 | COc1ccccc1N1CCN(Cc2cc3c(cc2[N+](=O)[O-])OCO3)CC1 | inconclusive: 56.2 µM [inhibitor, partial curve, poor fit] | –
66 | O=C(Nc1ccccc1Br)C1CC(=O)N(c2ccc3c(c2)OCCO3)C1 (configuration not stated) | active: 79.4 µM | –
